Experimental data as given in the supplement of paper PMC8728848.
This is one part of the list.

Key:
Experiment in all cases: glycan array binding signal (z-score within array); higher = stronger binding
Conditions in all cases: glycan notation: IUPAC condensed, linker removed
[1] = target: Gal(b1-4)GlcNAc(b1-2)[Gal(b1-4)GlcNAc(b1-6)]Man(a1-6)[Gal(b1-4)GlcNAc(b1-2)Man(a1-3)]Man(b1-4)GlcNAc(b1-4)[Fuc(a1-6)]GlcNAc
In short: (§1)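 Columns mapping to the same glycan were averaged after glycan names were converted to IUPAC-condensed notation. The data come from 3228 arrays in the Consortium for Functional Glycomics database, limited to those with an available protein sequence. Binding is reported as a within-array Z-score averaged across arrays of one protein sequence and across linkers.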

[2] = target: Gal(b1-4)GlcNAc(b1-2)[Gal(b1-4)GlcNAc(b1-6)]Man(a1-6)[GlcNAc(b1-4)][Gal(b1-4)GlcNAc(b1-2)Man(a1-3)]Man(b1-4)GlcNAc(b1-4)GlcNAc
In short: as §1

[3] = target: Gal(b1-4)GlcNAc(b1-2)[Gal(b1-4)GlcNAc(b1-6)]Man(a1-6)[GlcNAc(b1-4)][Gal(b1-4)GlcNAc(b1-2)[Gal(b1-4)GlcNAc(b1-4)]Man(a1-3)]Man(b1-4)GlcNAc(b1-4)[Fuc(a1-6)]GlcNAc
In short: as §1

[4] = target: Gal(b1-4)GlcNAc(b1-3)Gal(b1-3)GalNAc
In short: as §1

[5] = target: Gal(b1-4)GlcNAc(b1-3)Gal(b1-3)GlcNAc
In short: as §1

[6] = target: Gal(b1-4)GlcNAc(b1-3)Gal(b1-4)Glc
In short: as §1

[7] = target: Gal(b1-4)GlcNAc(b1-3)Gal(b1-4)GlcNAc
In short: as §1

[8] = target: Gal(b1-4)GlcNAc(b1-3)Gal(b1-4)GlcNAc(b1-2)Man(a1-3)[Gal(b1-4)GlcNAc(b1-3)Gal(b1-4)GlcNAc(b1-2)Man(a1-6)]Man(b1-4)GlcNAc(b1-4)GlcNAc
In short: as §1

[9] = target: Gal(b1-4)GlcNAc(b1-3)Gal(b1-4)GlcNAc(b1-2)Man(a1-3)[Gal(b1-4)GlcNAc(b1-3)Gal(b1-4)GlcNAc(b1-2)Man(a1-6)]Man(b1-4)GlcNAc(b1-4)[Fuc(a1-6)]GlcNAc
In short: as §1

[10] = target: Gal(b1-4)GlcNAc(b1-3)Gal(b1-4)GlcNAc(b1-2)[Gal(b1-4)GlcNAc(b1-3)Gal(b1-4)GlcNAc(b1-6)]Man(a1-6)[Gal(b1-4)GlcNAc(b1-3)Gal(b1-4)GlcNAc(b1-2)Man(a1-3)]Man(b1-4)GlcNAc(b1-4)GlcNAc
In short: as §1

[11] = target: Gal(b1-4)GlcNAc(b1-3)Gal(b1-4)GlcNAc(b1-2)[Gal(b1-4)GlcNAc(b1-3)Gal(b1-4)GlcNAc(b1-6)]Man(a1-6)[Gal(b1-4)GlcNAc(b1-3)Gal(b1-4)GlcNAc(b1-2)Man(a1-3)]Man(b1-4)GlcNAc(b1-4)[Fuc(a1-6)]GlcNAc
In short: as §1

[12] = target: Gal(b1-4)GlcNAc(b1-3)Gal(b1-4)GlcNAc(b1-3)Gal(b1-4)GlcNAc
In short: as §1

[13] = target: Gal(b1-4)GlcNAc(b1-3)Gal(b1-4)GlcNAc(b1-3)Gal(b1-4)GlcNAc(b1-2)Man(a1-3)[Gal(b1-4)GlcNAc(b1-3)Gal(b1-4)GlcNAc(b1-3)Gal(b1-4)GlcNAc(b1-2)Man(a1-6)]Man(b1-4)GlcNAc(b1-4)GlcNAc
In short: as §1

[14] = target: Gal(b1-4)GlcNAc(b1-3)Gal(b1-4)GlcNAc(b1-3)Gal(b1-4)GlcNAc(b1-2)Man(a1-3)[Gal(b1-4)GlcNAc(b1-3)Gal(b1-4)GlcNAc(b1-3)Gal(b1-4)GlcNAc(b1-2)Man(a1-6)]Man(b1-4)GlcNAc(b1-4)[Fuc(a1-6)]GlcNAc
In short: as §1

[15] = target: Gal(b1-4)GlcNAc(b1-3)Gal(b1-4)GlcNAc(b1-3)Gal(b1-4)GlcNAc(b1-2)[Gal(b1-4)GlcNAc(b1-3)Gal(b1-4)GlcNAc(b1-3)Gal(b1-4)GlcNAc(b1-6)]Man(a1-6)[Gal(b1-4)GlcNAc(b1-3)Gal(b1-4)GlcNAc(b1-3)Gal(b1-4)GlcNAc(b1-2)Man(a1-3)]Man(b1-4)GlcNAc(b1-4)[Fuc(a1-6)]GlcNAc
In short: as §1

[16] = target: Gal(b1-4)GlcNAc(b1-3)Gal(b1-4)GlcNAc(b1-3)Gal(b1-4)GlcNAc(b1-3)Gal(b1-4)GlcNAc(b1-2)Man(a1-3)[Gal(b1-4)GlcNAc(b1-3)Gal(b1-4)GlcNAc(b1-3)Gal(b1-4)GlcNAc(b1-3)Gal(b1-4)GlcNAc(b1-2)Man(a1-6)]Man(b1-4)GlcNAc(b1-4)GlcNAc
In short: as §1

[17] = target: Gal(b1-4)GlcNAc(b1-3)Gal(b1-4)GlcNAc(b1-3)Gal(b1-4)GlcNAc(b1-3)Gal(b1-4)GlcNAc(b1-2)Man(a1-3)[Gal(b1-4)GlcNAc(b1-3)Gal(b1-4)GlcNAc(b1-3)Gal(b1-4)GlcNAc(b1-3)Gal(b1-4)GlcNAc(b1-2)Man(a1-6)]Man(b1-4)GlcNAc(b1-4)[Fuc(a1-6)]GlcNAc
In short: as §1

[18] = target: Gal(b1-4)GlcNAc(b1-3)Gal(b1-4)GlcNAc(b1-3)Gal(b1-4)GlcNAc(b1-3)Gal(b1-4)GlcNAc(b1-2)[Gal(b1-4)GlcNAc(b1-3)Gal(b1-4)GlcNAc(b1-3)Gal(b1-4)GlcNAc(b1-3)Gal(b1-4)GlcNAc(b1-6)]Man(a1-6)[Gal(b1-4)GlcNAc(b1-3)Gal(b1-4)GlcNAc(b1-3)Gal(b1-4)GlcNAc(b1-3)Gal(b1-4)GlcNAc(b1-2)Man(a1-3)]Man(b1-4)GlcNAc(b1-4)[Fuc(a1-6)]GlcNAc
In short: as §1

[19] = target: Gal(b1-4)GlcNAc(b1-3)Gal(b1-4)GlcNAc(b1-3)Gal(b1-4)GlcNAc(b1-3)Gal(b1-4)GlcNAc(b1-3)Gal(b1-4)GlcNAc(b1-2)Man(a1-3)[Gal(b1-4)GlcNAc(b1-3)Gal(b1-4)GlcNAc(b1-3)Gal(b1-4)GlcNAc(b1-3)Gal(b1-4)GlcNAc(b1-3)Gal(b1-4)GlcNAc(b1-2)Man(a1-6)]Man(b1-4)GlcNAc(b1-4)GlcNAc
In short: as §1

[20] = target: Gal(b1-4)GlcNAc(b1-3)Gal(b1-4)GlcNAc(b1-3)Gal(b1-4)GlcNAc(b1-3)Gal(b1-4)GlcNAc(b1-3)Gal(b1-4)GlcNAc(b1-2)Man(a1-3)[Gal(b1-4)GlcNAc(b1-3)Gal(b1-4)GlcNAc(b1-3)Gal(b1-4)GlcNAc(b1-3)Gal(b1-4)GlcNAc(b1-3)Gal(b1-4)GlcNAc(b1-2)Man(a1-6)]Man(b1-4)GlcNAc(b1-4)[Fuc(a1-6)]GlcNAc
In short: as §1

[21] = target: Gal(b1-4)GlcNAc(b1-3)Gal(b1-4)GlcNAc(b1-3)Gal(b1-4)GlcNAc(b1-3)Gal(b1-4)GlcNAc(b1-3)Gal(b1-4)GlcNAc(b1-2)[Gal(b1-4)GlcNAc(b1-3)Gal(b1-4)GlcNAc(b1-3)Gal(b1-4)GlcNAc(b1-3)Gal(b1-4)GlcNAc(b1-3)Gal(b1-4)GlcNAc(b1-6)]Man(a1-6)[Gal(b1-4)GlcNAc(b1-3)Gal(b1-4)GlcNAc(b1-3)Gal(b1-4)GlcNAc(b1-3)Gal(b1-4)GlcNAc(b1-3)Gal(b1-4)GlcNAc(b1-2)Man(a1-3)]Man(b1-4)GlcNAc(b1-4)[Fuc(a1-6)]GlcNAc
In short: as §1

[22] = target: Gal(b1-4)GlcNAc(b1-3)Gal(b1-4)GlcNAc(b1-3)Gal(b1-4)GlcNAc(b1-3)Gal(b1-4)GlcNAc(b1-3)Gal(b1-4)GlcNAc(b1-3)Gal(b1-4)GlcNAc(b1-2)Man(a1-3)[Gal(b1-4)GlcNAc(b1-3)Gal(b1-4)GlcNAc(b1-3)Gal(b1-4)GlcNAc(b1-3)Gal(b1-4)GlcNAc(b1-3)Gal(b1-4)GlcNAc(b1-3)Gal(b1-4)GlcNAc(b1-2)Man(a1-6)]Man(b1-4)GlcNAc(b1-4)GlcNAc
In short: as §1

[23] = target: Gal(b1-4)GlcNAc(b1-3)Gal(b1-4)GlcNAc(b1-3)GalNAc
In short: as §1

B1: LSL-150 (Laetiporus sulphureus), Q7Z8V1 (protein)
chain: MTDIYIPPEGLYFRLLGFASRQVIFARNSPSPDVGLSPVNDQATDQYFSLIYGTGEHAGLYAIKSKATGKVLFSRRPAEPYVGQIDGDGRYPDNWFKIEPGKTYLSKYFRLVQPSTGTALVSRTHLQPYFWNHPQTEVFDDQYFTFLFEDHHHHHH
glycan array binding signal (z-score) [1]: -0.205 | glycan array binding signal (z-score) [2]: -0.204 | glycan array binding signal (z-score) [3]: -0.205 | glycan array binding signal (z-score) [4]: -0.205 | glycan array binding signal (z-score) [5]: -0.206 | glycan array binding signal (z-score) [6]: -0.195 | glycan array binding signal (z-score) [7]: 0.334 | glycan array binding signal (z-score) [8]: 0.879 | glycan array binding signal (z-score) [9]: 1.87 | glycan array binding signal (z-score) [10]: 0.827 | glycan array binding signal (z-score) [11]: 2.39 | glycan array binding signal (z-score) [12]: 1.3 | glycan array binding signal (z-score) [13]: 3.33 | glycan array binding signal (z-score) [14]: 5.23 | glycan array binding signal (z-score) [15]: 5.29 | glycan array binding signal (z-score) [16]: 5.88 | glycan array binding signal (z-score) [17]: 6.24 | glycan array binding signal (z-score) [18]: 6.23 | glycan array binding signal (z-score) [19]: 5.44 | glycan array binding signal (z-score) [20]: 6.16 | glycan array binding signal (z-score) [21]: 6.2 | glycan array binding signal (z-score) [22]: 5.13 | glycan array binding signal (z-score) [23]: 0.016
